Laboratory results reported in the supplement of paper PMC4604168 (melanoma cell lines).
The list shows a part of the results. Single values are uncertain, as repeats are few or missing.

Experiments:
Experiment in all cases: cell count relative to DMSO control; melanoma cells; higher = more viable cells
Conditions in all cases: library dose: low library concentration; 72 h
MZ2-MEL = system: MZ2-MEL
MeWo = system: MeWo
RPMI7951 = system: RPMI7951
RVH-421 = system: RVH-421
SkMel28 = system: SkMel28
SkMel30 = system: SkMel30
SkMel5 = system: SkMel5
UACC257 = system: UACC257
UACC62 = system: UACC62
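Also: cell number obtained by counting DAPI-stained nuclei in high-throughput microscope images with image analysis software, screen run in 1,536-well plates.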

SMILES	cell count (MZ2-MEL) [%]	cell count (MeWo) [%]	cell count (RPMI7951) [%]	cell count (RVH-421) [%]	cell count (SkMel28) [%]	cell count (SkMel30) [%]	cell count (SkMel5) [%]	cell count (UACC257) [%]	cell count (UACC62) [%]
CO[C@H]1C[C@@H]2CC[C@@H](C)[C@@](O)(O2)C(=O)C(=O)N2CCCC[C@H]2C(=O)O[C@H]([C@H](C)C[C@@H]2CC[C@@H](OCCO)[C@H](OC)C2)CC(=O)[C@H](C)/C=C(\C)[C@@H](O)[C@@H](OC)C(=O)[C@H](C)C[C@H](C)/C=C/C=C/C=C/1C [everolimus] + N#Cc1c(O)c2c(-c3ccc(-c4ccccc4O)cc3)csc2[nH]c1=O [A769662] (first compound 0.02 µM, partner dose 2 µM)	74.9	75.1	64.3	53.5	68.6	62.4	96.8	66.3	60
CO[C@H]1C[C@@H]2CC[C@@H](C)[C@@](O)(O2)C(=O)C(=O)N2CCCC[C@H]2C(=O)O[C@H]([C@H](C)C[C@@H]2CC[C@@H](OCCO)[C@H](OC)C2)CC(=O)[C@H](C)/C=C(\C)[C@@H](O)[C@@H](OC)C(=O)[C@H](C)C[C@H](C)/C=C/C=C/C=C/1C [everolimus] + Clc1ccc(Nc2nnc(Cc3ccncc3)c3ccccc23)cc1 [vatalanib] (first compound 0.02 µM, partner dose 2 µM)	73.9	50.9	78.4	69.3	54.4	67			60.1
CO[C@H]1C[C@@H]2CC[C@@H](C)[C@@](O)(O2)C(=O)C(=O)N2CCCC[C@H]2C(=O)O[C@H]([C@H](C)C[C@@H]2CC[C@@H](OCCO)[C@H](OC)C2)CC(=O)[C@H](C)/C=C(\C)[C@@H](O)[C@@H](OC)C(=O)[C@H](C)C[C@H](C)/C=C/C=C/C=C/1C [everolimus] + O=C(CCCCCCC(=O)Nc1ccccc1)NO [vorinostat] (first compound 0.02 µM, partner dose 0.08 µM)	88.8	72.4	66.8	88.2	57.7	138	89.4	53.6	72.8
CO[C@H]1C[C@@H]2CC[C@@H](C)[C@@](O)(O2)C(=O)C(=O)N2CCCC[C@H]2C(=O)O[C@H]([C@H](C)C[C@@H]2CC[C@@H](OCCO)[C@H](OC)C2)CC(=O)[C@H](C)/C=C(\C)[C@@H](O)[C@@H](OC)C(=O)[C@H](C)C[C@H](C)/C=C/C=C/C=C/1C [everolimus] + CN(NC(=O)CC(=O)NN(C)C(=S)c1ccccc1)C(=S)c1ccccc1 [STA4783] (first compound 0.02 µM, partner dose 0.006 µM)	69.9	69.5	94.7	88.1	53.2	64.1	89.2	83.5	75.7
CO[C@H]1C[C@@H]2CC[C@@H](C)[C@@](O)(O2)C(=O)C(=O)N2CCCC[C@H]2C(=O)O[C@H]([C@H](C)C[C@@H]2CC[C@@H](OCCO)[C@H](OC)C2)CC(=O)[C@H](C)/C=C(\C)[C@@H](O)[C@@H](OC)C(=O)[C@H](C)C[C@H](C)/C=C/C=C/C=C/1C [everolimus] + C#Cc1cccc(Nc2ncnc3cc(OCCOC)c(OCCOC)cc23)c1 [erlotinib] (first compound 0.02 µM, partner dose 0.8 µM)	69	68.8	71.8	96.1	68.5	60.5			77.3
CO[C@H]1C[C@@H]2CC[C@@H](C)[C@@](O)(O2)C(=O)C(=O)N2CCCC[C@H]2C(=O)O[C@H]([C@H](C)C[C@@H]2CC[C@@H](OCCO)[C@H](OC)C2)CC(=O)[C@H](C)/C=C(\C)[C@@H](O)[C@@H](OC)C(=O)[C@H](C)C[C@H](C)/C=C/C=C/C=C/1C [everolimus] + O=C(Nc1cccc(Cl)c1)Nc1ncc(CCNc2ncnc3ccsc23)s1 [SNS314] (first compound 0.02 µM, partner dose 0.0008 µM)	65.1	80	74.6	71	58.8	63	105	58.2	76
